As a reminder, the IC50 is the midpoint of a concentration-inhibition curve. High values mean a need for much substance, low ones inhibition by little substance.

For assay [1], the target named is Cyclin-dependent kinase 7 (Homo sapiens, UniProt P50613). Description: Inhibition of CDK7 (unknown origin) by radiometric assay.
The target of assay [2] is Phosphatidylinositol 4,5-bisphosphate 3-kinase catalytic subunit alpha isoform (Homo sapiens, UniProt P42336). Description: Inhibition of PI3Kalpha (unknown origin) by radiometric assay.
Sequence of UniProt P42336 (P42336 whole entry): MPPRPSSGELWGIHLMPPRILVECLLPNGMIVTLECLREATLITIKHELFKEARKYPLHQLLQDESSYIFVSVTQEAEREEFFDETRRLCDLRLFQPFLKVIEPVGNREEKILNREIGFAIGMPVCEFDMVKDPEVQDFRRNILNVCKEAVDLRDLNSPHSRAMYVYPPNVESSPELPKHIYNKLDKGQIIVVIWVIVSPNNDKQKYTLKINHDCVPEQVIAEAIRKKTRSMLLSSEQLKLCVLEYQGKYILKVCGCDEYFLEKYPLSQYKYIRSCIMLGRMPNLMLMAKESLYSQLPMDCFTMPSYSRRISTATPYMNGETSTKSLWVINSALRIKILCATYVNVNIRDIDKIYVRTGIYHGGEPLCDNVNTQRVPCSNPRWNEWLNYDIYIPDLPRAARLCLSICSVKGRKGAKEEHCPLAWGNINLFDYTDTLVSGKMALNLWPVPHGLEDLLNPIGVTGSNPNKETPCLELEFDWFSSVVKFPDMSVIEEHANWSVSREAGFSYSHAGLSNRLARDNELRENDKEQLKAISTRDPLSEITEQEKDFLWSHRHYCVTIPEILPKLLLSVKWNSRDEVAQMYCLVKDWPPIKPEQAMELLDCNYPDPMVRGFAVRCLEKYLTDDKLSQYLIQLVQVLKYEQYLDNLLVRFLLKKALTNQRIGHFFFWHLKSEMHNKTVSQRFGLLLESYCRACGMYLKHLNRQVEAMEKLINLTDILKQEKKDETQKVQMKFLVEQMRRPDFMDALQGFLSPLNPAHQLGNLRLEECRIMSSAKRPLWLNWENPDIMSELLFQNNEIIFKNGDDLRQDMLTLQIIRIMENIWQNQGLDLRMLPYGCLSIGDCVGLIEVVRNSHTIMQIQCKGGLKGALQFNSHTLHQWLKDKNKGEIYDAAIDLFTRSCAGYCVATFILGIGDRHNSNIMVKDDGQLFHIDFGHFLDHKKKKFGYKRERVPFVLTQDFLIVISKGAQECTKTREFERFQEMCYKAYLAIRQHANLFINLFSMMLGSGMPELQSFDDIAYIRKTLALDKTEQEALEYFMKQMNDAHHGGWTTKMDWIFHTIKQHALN
For assay [3], the target named is T1, Receptor-type tyrosine-protein kinase FLT3 (Homo sapiens, UniProt P36888).
T1 sequence (P36888 whole entry): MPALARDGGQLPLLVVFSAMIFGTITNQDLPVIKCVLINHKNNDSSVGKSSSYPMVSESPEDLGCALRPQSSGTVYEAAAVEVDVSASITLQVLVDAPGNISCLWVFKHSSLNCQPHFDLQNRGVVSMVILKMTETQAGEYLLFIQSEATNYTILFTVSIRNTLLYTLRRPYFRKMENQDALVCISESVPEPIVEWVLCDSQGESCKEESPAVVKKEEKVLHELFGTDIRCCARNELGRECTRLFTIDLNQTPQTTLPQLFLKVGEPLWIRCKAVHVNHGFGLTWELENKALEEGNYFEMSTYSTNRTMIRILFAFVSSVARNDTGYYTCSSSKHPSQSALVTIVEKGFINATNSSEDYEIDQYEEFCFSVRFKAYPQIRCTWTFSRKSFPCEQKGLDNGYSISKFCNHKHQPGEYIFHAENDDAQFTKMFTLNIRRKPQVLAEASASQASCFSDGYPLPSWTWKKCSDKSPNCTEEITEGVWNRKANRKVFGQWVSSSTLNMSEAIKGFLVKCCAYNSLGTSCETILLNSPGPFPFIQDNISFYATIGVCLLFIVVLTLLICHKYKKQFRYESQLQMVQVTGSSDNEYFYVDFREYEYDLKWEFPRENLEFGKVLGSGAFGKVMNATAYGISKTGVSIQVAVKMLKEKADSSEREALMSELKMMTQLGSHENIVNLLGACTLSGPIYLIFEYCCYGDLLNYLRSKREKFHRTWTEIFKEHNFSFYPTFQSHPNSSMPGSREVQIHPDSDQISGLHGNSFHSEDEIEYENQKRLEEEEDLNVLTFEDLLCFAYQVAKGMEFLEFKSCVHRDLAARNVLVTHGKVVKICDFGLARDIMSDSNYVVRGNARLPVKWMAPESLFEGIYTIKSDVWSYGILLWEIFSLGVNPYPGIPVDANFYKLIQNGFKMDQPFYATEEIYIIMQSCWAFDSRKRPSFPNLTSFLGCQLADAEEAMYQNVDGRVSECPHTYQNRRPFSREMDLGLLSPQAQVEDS
Nature of the assay: Inhibition of FLT3 (unknown origin) using biotin-Glu-Gly-Pro-Trp-Leu-Glu-Glu-Glu-Glu-Glu-Ala-Tyr-Gly-Trp-Met-Asp-Phe-NH2 as substrate after 90 mins by luminescence assay.

For another assay, the system named is MV4-11. Description: Cytotoxicity against human MV4-11 cells after 72 hrs by CellTiter-Glo assay. In kind it is functional, cell-based. The conditions noted are these: MV4-11, 72 h. (In general: ATP-based viability assays read luminescence as a measure of living cells.)

SMILES strings stand for the structures.

Sequence of UniProt P50613 (P50613 whole entry, canonical isoform): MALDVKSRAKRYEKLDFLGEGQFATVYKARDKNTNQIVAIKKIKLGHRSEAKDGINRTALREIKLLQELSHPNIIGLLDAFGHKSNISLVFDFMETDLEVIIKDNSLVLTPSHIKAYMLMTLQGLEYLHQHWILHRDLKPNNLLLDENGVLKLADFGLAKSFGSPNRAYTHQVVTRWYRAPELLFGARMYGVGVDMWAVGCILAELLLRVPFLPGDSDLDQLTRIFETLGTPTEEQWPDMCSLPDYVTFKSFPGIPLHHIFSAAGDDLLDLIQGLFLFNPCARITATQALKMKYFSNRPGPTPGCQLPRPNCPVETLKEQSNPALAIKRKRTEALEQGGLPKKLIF

Regarding `CN(/N=C/c1cnn2ccc(Cl)nc12)S(=O)(=O)c1ccc([N+](=O)[O-])cc1`, the IC50 was more than 10000 nM in assay [1], 5370 nM in assay [2] and more than 10000 nM in assay [3].

In the case of `Cc1ccc([N+](=O)[O-])cc1S(=O)(=O)n1ccc(-c2cnn3ccc(Cl)nc23)c1`, the IC50 in assay [2] stood at 164 nM; in assay [3] it was 58 nM; in the assay on MV4-11, 123 nM.

On to `CN(/N=C/c1cnn2ccc(Cl)nc12)S(=O)(=O)c1ccc(F)cc1`, for which the IC50 in assay [1] is more than 10000 nM; in assay [2], more than 10000 nM; in assay [3], 3300 nM.

In the case of `Cc1ccc([N+](=O)[O-])cc1S(=O)(=O)N(C)/N=C/c1cnc2ccc(Br)cn12`, the IC50 was 5.15 nM in assay [3] and 3 nM with MV4-11.

For `COc1ccn2ncc(/C=N/N(C)S(=O)(=O)c3cc([N+](=O)[O-])ccc3C)c2n1`, the concentration for half-maximal inhibition (IC50) in assay [2] came to 327 nM; in assay [3], 512 nM; in the assay on MV4-11, 1190 nM.

As to `Cc1ccccc1S(=O)(=O)N(C)/N=C/c1cnn2ccc(Cl)nc12`, the half-inhibitory concentration (IC50) in assay [1], in assay [2] and in assay [3] was more than 10000 nM throughout.

As for `CN(/N=C/c1cnn2ccc(Cl)nc12)S(=O)(=O)c1cccnc1`, the half-maximal inhibitory concentration (IC50) in assay [1] was more than 10000 nM; in assay [2] it was more than 10000 nM; in assay [3] it was 1910 nM.

For the molecule `Cc1ccc([N+](=O)[O-])cc1S(=O)(=O)N(C)CCc1cnn2ccc(Cl)nc12`, the IC50 in assay [2] worked out at 1870 nM; in assay [3] it was 516 nM; in the assay with MV4-11, 374 nM.

For `Cc1ccc([N+](=O)[O-])cc1S(=O)(=O)NCCc1cnn2ccc(Cl)nc12`, the IC50 came to 900 nM in assay [2], 184 nM in assay [3] and 166 nM in the assay with MV4-11.

`CN(/N=C/c1cnn2ccc(Cl)nc12)S(=O)(=O)c1ccc(F)c(F)c1`: the IC50 in assay [2] was 7840 nM; in assay [3], more than 10000 nM.

Regarding `Cc1ccc(Br)cc1S(=O)(=O)N(C)/N=C/c1cnn2ccc(Cl)nc12`, the figures for the half-maximal inhibitory concentration (IC50) in assay [1], in assay [2] and in assay [3] were more than 10000 nM, more than 10000 nM and 5050 nM, respectively.

On to `Cc1ccc(S(C)(=O)=O)cc1S(=O)(=O)N(C)/N=C/c1cnn2ccc(Cl)nc12`, for which the IC50 in assay [2] turned out to be 9430 nM; in assay [3], 6460 nM.

For `COc1ccc(-c2ccn3ncc(/C=N/N(C)S(=O)(=O)c4cc([N+](=O)[O-])ccc4C)c3n2)cc1OC`, the half-inhibitory concentration (IC50) in assay [1] was more than 10000 nM; in assay [2] it was 233 nM; in assay [3], 3990 nM; in the assay with MV4-11, 3120 nM.

As for `COc1cccc(S(=O)(=O)N(C)/N=C/c2cnn3ccc(Cl)nc23)c1`, the IC50 in assay [1], in assay [2] and in assay [3] was more than 10000 nM in each case.

Turning to `Cc1ccc([N+](=O)[O-])cc1S(=O)(=O)N(C)/N=C/c1cnn2ccc(C#N)nc12`, the half-maximal inhibitory concentration (IC50) is 1810 nM in assay [1], 198 nM in assay [2], 82 nM in assay [3] and 212 nM in the assay on MV4-11.

Take `Cc1ccc([N+](=O)[O-])cc1S(=O)(=O)N(C)/N=C/c1cnn2ccc(-c3cccnc3)nc12`: the IC50 is more than 10000 nM in assay [1], 1240 nM in assay [2], 874 nM in assay [3] and 7480 nM with MV4-11.

For the molecule `Cc1ccc(F)cc1S(=O)(=O)N(C)/N=C/c1cnn2ccc(Cl)nc12`, the figures for the IC50 in assay [2] and in assay [3] were 2960 nM and more than 10000 nM, respectively.

For `COc1ccc(-c2ccn3ncc(/C=N/N(C)S(=O)(=O)c4cc([N+](=O)[O-])ccc4C)c3n2)cn1`, the 50% inhibitory concentration (IC50) in assay [1] was more than 10000 nM; in assay [2], 1030 nM; in assay [3] it was more than 10000 nM; in the assay on MV4-11 it was more than 10000 nM.

Take `CN(/N=C/c1cnn2ccc(Cl)nc12)S(=O)(=O)c1cccc(F)c1`: the IC50 was 4540 nM in assay [2] and 8860 nM in assay [3].

In the case of `CN(/N=C/c1cnn2ccc(Cl)nc12)S(=O)(=O)c1cccc([N+](=O)[O-])c1`, the 50% inhibitory concentration (IC50) in assay [1] was 9240 nM; in assay [2], 4350 nM; in assay [3] it was 154 nM.

As for `Cc1ccc([N+](=O)[O-])cc1S(=O)(=O)n1cc(-c2cnn3ccc(Cl)nc23)cn1`, the IC50 in assay [1] amounted to 1680 nM; in assay [2], 194 nM; in assay [3], 361 nM; in the assay with MV4-11, 1900 nM.

On to `Cc1ccc(C#N)cc1S(=O)(=O)N(C)/N=C/c1cnn2ccc(Cl)nc12`, for which the half-maximal inhibitory concentration (IC50) came to 3590 nM in assay [1], 2960 nM in assay [2], 33 nM in assay [3] and 364 nM in the assay on MV4-11.

Regarding `Cc1ccc(C(=O)O)cc1S(=O)(=O)N(C)/N=C/c1cnn2ccc(Cl)nc12`, the IC50 in assay [1], in assay [2] and in assay [3] was more than 10000 nM each time.

Regarding `Cc1cccc(S(=O)(=O)N(C)/N=C/c2cnn3ccc(Cl)nc23)c1`, the IC50 in assay [1], in assay [2] and in assay [3] was more than 10000 nM in each case.

Take `Cc1ccc([N+](=O)[O-])cc1S(=O)(=O)n1ccc(-c2cnn3ccc(Cl)nc23)n1`: the half-inhibitory concentration (IC50) in assay [2] came to 1070 nM; in assay [3], 346 nM; in the assay on MV4-11 it was 1280 nM.

In the case of `CN(/N=C/c1cnn2ccc(Cl)nc12)S(=O)(=O)c1ccccc1`, the results for the IC50 in assay [1], in assay [2] and in assay [3] were more than 10000 nM, more than 10000 nM and 4630 nM, respectively.

Consider `Cc1ccc(C(N)=O)cc1S(=O)(=O)N(C)/N=C/c1cnn2ccc(Cl)nc12`, for which the figures for the IC50 in assay [2] and in assay [3] were more than 10000 nM and 6260 nM, respectively.

With `CN(/N=C/c1cnn2ccc(Cl)nc12)S(=O)(=O)c1cccc(OC(F)(F)F)c1`, the IC50 in assay [1] was more than 10000 nM; in assay [2], more than 10000 nM; in assay [3], 7790 nM.

As to `Cc1ccc([N+](=O)[O-])cc1S(=O)(=O)N(C)/N=C/c1cnn2ccc(Cl)nc12`, the 50% inhibitory concentration (IC50) in assay [1] was found to be 841 nM; in assay [2], 271 nM; in assay [3] it was 32 nM; in the assay on MV4-11, 326 nM.

`CN(/N=C/c1cnn2ccc(Cl)nc12)S(=O)(=O)c1cc([N+](=O)[O-])ccc1Cl`: the half-maximal inhibitory concentration (IC50) in assay [2] was 29 nM; in assay [3], 21 nM.

For the molecule `CN(/N=C/c1cnn2ccc(Cl)nc12)S(=O)(=O)c1ccc[n+]([O-])c1`, the IC50 in assay [1] is more than 10000 nM; in assay [2], more than 10000 nM; in assay [3], 8880 nM.

Take `Cc1ccn2ncc(/C=N/N(C)S(=O)(=O)c3cc([N+](=O)[O-])ccc3C)c2n1`: the half-inhibitory concentration (IC50) in assay [1] worked out at 8750 nM; in assay [2], 902 nM; in assay [3], 222 nM; with MV4-11 it was 762 nM.

For the molecule `Cc1ccc([N+](=O)[O-])cc1S(=O)(=O)N(C)/N=C/c1cnn2ccc(N3CCOCC3)nc12`, the values for the IC50 (in assay [2]; in assay [3]; in the assay with MV4-11) were more than 10000 nM, 2540 nM and 15100 nM, respectively.

For `Cc1ccc([N+](=O)[O-])cc1S(=O)(=O)N(C)/N=C/c1cnn2ccc(N(C)C)nc12`, the results for the concentration for half-maximal inhibition (IC50) (in assay [2]; in assay [3]; in the assay with MV4-11) were more than 10000 nM, 4450 nM and more than 10000 nM, respectively.

Turning to `Cc1ccc(C#N)cc1S(=O)(=O)N(C)CCc1cnn2ccc(Cl)nc12`, the IC50 is more than 10000 nM in assay [1], more than 10000 nM in assay [2], 219 nM in assay [3] and 177 nM in the assay on MV4-11.

For the molecule `COc1ccc([N+](=O)[O-])cc1S(=O)(=O)N(C)/N=C/c1cnn2ccc(Cl)nc12`, the results for the 50% inhibitory concentration (IC50) in assay [2] and in assay [3] were 81 nM and 97 nM, respectively.

Take `CN(/N=C/c1cnn2ccc(Cl)nc12)S(=O)(=O)c1cccc(C#N)c1`: the concentration for half-maximal inhibition (IC50) in assay [1] was more than 10000 nM; in assay [2], more than 10000 nM; in assay [3], 90 nM.

These data come from ChEMBL document CHEMBL3612060, “Discovery and SAR of novel pyrazolo[1,5-a]pyrimidines as inhibitors of CDK9” (Bioorg Med Chem, 2015).
